Our source for the cytotoxicity call values is the antibiotic and cytotoxicity screens of Wong et al. (2023).

Molecules are shown by their SMILES. This is one part of the list.

This assay concerns HepG2. The assay can be described thus: cytotoxicity call (relative viability < 0.9). Conditions: 10 µM.
For the compound `C[C@H]1CN([C@@H](C)CO)C(=O)c2cccc(NS(=O)(=O)c3ccccc3)c2O[C@@H]1CN(C)Cc1ccc(Cl)c(Cl)c1`, the cytotoxicity call was “inactive”.

For `COc1ccc(S(=O)(=O)Nc2ccc3c(c2)C(=O)N([C@@H](C)CO)C[C@@H](C)[C@H](CN(C)C(=O)Nc2ccc(C(F)(F)F)cc2)OCCCC[C@@H](C)O3)cc1`, the cytotoxicity call was “inactive”.

Consider `CC1(C)CC[C@]2(C(=O)O[C@@H]3OC[C@@H](O)[C@H](O)[C@H]3O)CC[C@]3(C)C(=CC[C@H]4[C@@]5(C)C[C@@H](O)[C@H](O)[C@@](C)(CO)[C@@H]5[C@H](O)C[C@]43C)[C@@H]2C1`, for which the cytotoxicity call is “inactive”.

On to `NC(=O)NCC#Cc1ccc2c(c1)[C@]1(C(=O)N2)[C@H](C(N)=O)[C@H]2C(=O)O[C@H](c3ccccc3)[C@H](c3ccccc3)N2[C@@H]1c1ccc(OCCO)cc1`, for which the cytotoxicity call is “inactive”.

With `C[C@H]1CN([C@@H](C)CO)C(=O)c2c(c3ccccc3n2C)-c2ccccc2CO[C@H]1CN(C)C(=O)CCC(F)(F)F`, the cytotoxicity call was “inactive”.

Regarding `CCCC(=O)Nc1ccc2c(c1)C(=O)N(C)C[C@H](OC)[C@@H](C)CN(Cc1ccc(-c3ccccn3)cc1)[C@H](C)CO2`, the cytotoxicity call was “inactive”.

Consider `C[C@H](CO)N1C[C@H](C)[C@H](CN(C)C(=O)Nc2ccccc2)OCCCC[C@H](C)Oc2ccc(NS(=O)(=O)c3ccc(F)cc3)cc2C1=O`, for which the cytotoxicity call is “inactive”.

For `COc1ccc([Si](C)(C)[C@@H]2[C@@H](CCO)O[C@]3(C(=O)N(Cc4cccc(N5C(=O)c6cccc7cccc5c67)c4)c4ccccc43)[C@H]2C)cc1`, the cytotoxicity call is “active”.

For `COc1ccc(-c2cn(CCCNC(=O)[C@H](Cc3ccccc3)NS(=O)(=O)c3ccc(C)cc3)nn2)cc1OC`, the cytotoxicity call was “inactive”.

As for `Cc1noc(C)c1S(=O)(=O)N(C)C[C@@H]1Oc2ccc(NS(=O)(=O)c3cn(C)cn3)cc2C(=O)N([C@@H](C)CO)C[C@@H]1C`, the cytotoxicity call is “inactive”.

`NC(=O)[C@H]1Cc2ccccc2N1`: the cytotoxicity call was “inactive”.

With `C[C@@H]1CCCCO[C@@H](CN(C)Cc2ccc(C(=O)Nc3ccccc3N)cc2)[C@@H](C)CN([C@H](C)CO)C(=O)c2cc(NC(=O)C3CCCCC3)ccc2O1`, the cytotoxicity call was “inactive”.

Regarding `COc1ccc([Si](C)(C)[C@H]2[C@H](CC(=O)N(CCO)Cc3ccccc3)O[C@@]3(C(=O)N(C)c4c(Br)cc(C)cc43)[C@@H]2C)cc1`, the cytotoxicity call is “active”.

As to `COc1ccc(-c2ccc3c(c2)O[C@@H](CN(C)CC2CCOCC2)[C@@H](C)CN([C@H](C)CO)S3(=O)=O)cc1`, the cytotoxicity call was “inactive”.

Take `C[C@H](CO)N1C[C@H](C)[C@H](CN(C)Cc2ccc(C(=O)Nc3ccccc3N)cc2)Oc2c(NC(=O)NC3CCCCC3)cccc2C1=O`: the cytotoxicity call was “active”.

Regarding `C[C@H](CO)N1C[C@H](C)[C@@H](CN(C)S(=O)(=O)c2ccccc2)Oc2c(NC(=O)C3CCOCC3)cccc2C1=O`, the cytotoxicity call is “inactive”.

As for `CCOC(=O)[C@H]1C/C=C/C[C@H](C(=O)OCC)C(=O)O[C@H]2[C@@H](OC)O[C@H](CO)[C@@H](OC(=O)Nc3cccc(F)c3)[C@@H]2OC1=O`, the cytotoxicity call is “active”.

Turning to `COc1ccc(NC(=O)Nc2ccc3c(c2)C(=O)N([C@@H](C)CO)C[C@@H](C)[C@@H](CN(C)C(=O)Nc2ccc(C(F)(F)F)cc2)OCCCC[C@@H](C)O3)cc1`, the cytotoxicity call is “inactive”.

Take `CCN(CC)[C@H]1CCS(=O)(=O)C1`: the cytotoxicity call is “inactive”.

With `CCO[C@@H]1OC(C(=O)N2CCN(Cc3ccc4c(c3)OCO4)CC2)=C[C@H](c2ccc(C(F)(F)F)cc2)[C@H]1CCCOC(=O)NCCCCCC(=O)NO`, the cytotoxicity call was “inactive”.

As for `O=C(O)c1ccc(CCO)s1`, the cytotoxicity call was “inactive”.

Consider `CO[C@@H]1CN(C)C(=O)c2ccc(NC(=O)C3CCCC3)cc2OC[C@@H](C)N(C(=O)Nc2ccc(C(F)(F)F)cc2)C[C@H]1C`, for which the cytotoxicity call was “inactive”.

As to `C[C@@H]1CN([C@@H](C)CO)C(=O)c2cc(NC(=O)Cc3ccccc3)ccc2O[C@@H](C)CCCCO[C@H]1CN(C)CC1CCCCC1`, the cytotoxicity call is “active”.

On to `CN1C(=O)c2cc(NC(=O)c3ccc(F)cc3)ccc2OC[C@@H]2O[C@H](CC(=O)N3CCOCC3)CC[C@H]21`, for which the cytotoxicity call is “inactive”.

For `C/C=N/N(C)C=O`, the cytotoxicity call was “inactive”.

Consider `COc1ccc2c3c([nH]c2c1)[C@H](CO)N(CC1CCCCC1)C[C@]13CN(C1)C(=O)Nc1cccc(c1)F`, for which the cytotoxicity call was “inactive”.

For the compound `C[C@H]1CCCCO[C@@H](CN(C)Cc2ccccc2)[C@@H](C)CN([C@@H](C)CO)C(=O)c2cc(NC(=O)Nc3ccccc3)ccc2O1`, the cytotoxicity call is “inactive”.

Take `C=CCOC(=O)C1=C[C@@H](c2csc3ccccc23)C[C@@H](OCc2ccc(COC(=O)NCCCCCC(=O)NO)cc2)O1`: the cytotoxicity call is “inactive”.

With `Cc1ccc(S(=O)(=O)Nc2ccc3c(c2)C(=O)N([C@H](C)CO)C[C@H](C)[C@H](CN(C)CC2CCCCC2)OCCCC[C@H](C)O3)cc1`, the cytotoxicity call is “active”.

For the compound `C=CCN1C(=O)[C@]2(O[C@H](CCO)[C@@H]([Si](C)(C)c3ccc(OC)cc3)[C@@H]2C)c2cc(N3C(=O)c4cccc5cccc3c45)ccc21`, the cytotoxicity call is “active”.

Take `Cc1ccc(S(=O)(=O)N(C)C[C@H]2Oc3c(NC(=O)Nc4cccc5ccccc45)cccc3C(=O)N([C@@H](C)CO)C[C@H]2C)cc1`: the cytotoxicity call was “inactive”.

Consider `NCc1ccccc1-n1cncn1`, for which the cytotoxicity call is “inactive”.

As to `COc1ccc(CN(C)C[C@H]2OCCCC[C@H](C)Oc3ccc(NS(=O)(=O)c4ccc(C)cc4)cc3C(=O)N([C@H](C)CO)C[C@H]2C)cc1`, the cytotoxicity call is “inactive”.

Consider `C[C@@H]1CN([C@@H](C)CO)C(=O)c2cc(NC(=O)Nc3ccccc3)ccc2O[C@@H]1CN(C)Cc1ccc(Cl)c(Cl)c1`, for which the cytotoxicity call was “active”.

As to `CO[C@H]1/C=C\C=C(/C)C(=O)NC2=CC(=O)C=C(C2=O)[C@H](OC)[C@@H](C)C[C@H](OC)[C@H](O)[C@@H](C)/C=C(\C)[C@@H]1OC(N)=O`, the cytotoxicity call was “inactive”.

`COC1C=COC2(C)Oc3c(C)c(O)c4c(O)c(c5c(nc6cc(C)ccn65)c4c3C2=O)NC(=O)C(C)=CC=CC(C)C(O)C(C)C(O)C(C)C(OC(C)=O)C1C` (stereo not given): the cytotoxicity call is “inactive”.

On to `CO[C@H]1CN(C)C(=O)c2ccc(NS(C)(=O)=O)cc2OC[C@@H](C)N(C(=O)CN(C)C)C[C@@H]1C`, for which the cytotoxicity call was “inactive”.

Take `C[C@H]1CN([C@@H](C)CO)S(=O)(=O)c2ccc(C#CC3(O)CCCC3)cc2O[C@H]1CN(C)C(=O)c1ccccc1`: the cytotoxicity call was “inactive”.

Regarding `COc1cccc(S(=O)(=O)N2C[C@H](O)COC[C@H]3O[C@@H](CC(=O)N4CCOCC4)CC[C@@H]32)c1`, the cytotoxicity call was “inactive”.

`C[C@@H]1CN([C@H](C)CO)S(=O)(=O)c2ccc(C3=CCCCC3)cc2O[C@@H]1CN(C)S(=O)(=O)c1cn(C)cn1`: the cytotoxicity call is “inactive”.
